The test system of the assay is C57BL/6 mice, intracerebral ependymoblastoma, median survival T/C. The assay can be described thus: NCI In Vivo Anticancer Drug Screen. Data for tumor model Ependymoblastoma (intracerebral) in C57BL/6 mice. The note with it: endpoint: median survival time, higher = longer survival. The method, then: The antitumor activity of compounds was measured in mice bearing transplantable tumors. Survival or tumor size were measured and the results are expressed as the measurement made in the treated group (T) divided by the measurement made in the vehicle treated control group (C). The tumor model used in this assay is Ependymoblastoma (intracerebral) in C57BL/6 mice

Molecules are shown by their SMILES. Toxic doses and inconclusive results are not listed. Some entries of the source have several records that differ or are many. This list holds those alone. An entry can have further records. Values that stand side by side repeat one measurement (runs, samples, wells, individuals or studies).

As for `O=P1(NCCCl)OCCCN1CCCl` (stereo unspecified), the T/C (dose: 400.0 mg/kg/injection, schedule: Q01DX001 (ip), vehicle: water) was 124 % of control and 168 % of control.

As for `O=NN(CCCl)C(=O)NCCCl`, the T/C was 120 % of control and 160 % of control (dose: 1.0 mg/kg/injection, schedule: Q03HX008 (ip), vehicle: saline); 88 % of control, 113 % of control, 161 % of control (dose: 2.0 mg/kg/injection, schedule: Q01DX005 (ip), vehicle: alcohol); 120 % of control and 184 % of control (dose: 8.0 mg/kg/injection, schedule: Q08DX002 (ip), vehicle: saline); 103 % of control and 158 % of control (dose: 32.0 mg/kg/injection, schedule: Q08DX002 (ip), vehicle: saline).

Turning to `O=NN(CCCl)C(=O)NC1CCC(=O)NC1=O` (stereo unspecified), under “dose: 14.0 mg/kg/injection, schedule: Q01DX001 (ip), vehicle: other”, the T/C was 99 % of control and 313 % of control.

For the origin of these results see PubChem BioAssay AID222 (DTP/NCI, 2004).
